Assay results reported in article PMC4336329 (PLoS ONE, 2015).
The campaign covered roughly 310,000 compounds. About 2,200 (0.71%) showed an effect of 50% or more. Effects have a minus sign here. This is one part of the list.

Target: human ether-à-go-go-related gene (hERG) potassium channel (human, UniProt Q12809)
Assay: primary screen, population patch clamp on CHO cells stably expressing hERG

human ether-à-go-go-related gene (hERG) potassium channel, sequence (Q12809 whole entry, looked up): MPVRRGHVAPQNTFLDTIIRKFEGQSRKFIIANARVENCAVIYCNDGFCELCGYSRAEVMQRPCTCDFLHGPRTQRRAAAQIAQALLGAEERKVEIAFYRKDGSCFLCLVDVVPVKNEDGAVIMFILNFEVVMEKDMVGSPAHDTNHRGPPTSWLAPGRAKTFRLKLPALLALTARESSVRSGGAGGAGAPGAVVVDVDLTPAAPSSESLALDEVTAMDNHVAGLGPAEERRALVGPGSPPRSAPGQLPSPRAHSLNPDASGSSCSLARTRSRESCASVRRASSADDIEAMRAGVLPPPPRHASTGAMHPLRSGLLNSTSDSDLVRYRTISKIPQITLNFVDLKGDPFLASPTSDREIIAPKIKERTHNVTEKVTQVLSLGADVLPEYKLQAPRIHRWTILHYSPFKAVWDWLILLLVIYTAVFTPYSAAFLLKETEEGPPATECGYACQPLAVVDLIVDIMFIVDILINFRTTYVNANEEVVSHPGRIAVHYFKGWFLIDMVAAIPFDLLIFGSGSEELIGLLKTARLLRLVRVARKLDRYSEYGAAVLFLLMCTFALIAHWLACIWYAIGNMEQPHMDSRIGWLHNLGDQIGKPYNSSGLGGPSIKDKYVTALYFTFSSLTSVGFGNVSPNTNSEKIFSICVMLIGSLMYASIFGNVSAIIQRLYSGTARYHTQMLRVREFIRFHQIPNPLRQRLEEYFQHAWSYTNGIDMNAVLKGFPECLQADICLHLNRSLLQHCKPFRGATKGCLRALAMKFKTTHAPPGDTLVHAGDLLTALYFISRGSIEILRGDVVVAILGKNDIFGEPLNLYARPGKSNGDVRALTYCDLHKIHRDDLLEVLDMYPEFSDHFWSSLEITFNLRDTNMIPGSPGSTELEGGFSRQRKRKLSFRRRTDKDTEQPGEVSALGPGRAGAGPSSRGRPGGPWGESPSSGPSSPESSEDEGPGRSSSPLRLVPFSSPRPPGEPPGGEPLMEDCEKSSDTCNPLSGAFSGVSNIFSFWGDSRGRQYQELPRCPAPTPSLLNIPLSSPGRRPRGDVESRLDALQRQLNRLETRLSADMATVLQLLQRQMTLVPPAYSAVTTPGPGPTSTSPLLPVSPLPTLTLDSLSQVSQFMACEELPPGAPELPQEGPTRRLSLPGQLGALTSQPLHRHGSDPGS

Compound	hERG current change (%, negative = inhibition) at 1uM [%]
CCNc1nc(Oc2ccc(OC)cc2)cc(C(F)(F)F)n1	10.7
COc1ccc(F)cc1C(=O)C1CCCN(C(=O)c2cccc(N(C)C)c2)C1 (stereo not shown)	4.3
O=C(NCc1cccc(C(F)(F)F)c1)N1CCN(S(=O)(=O)c2ccccc2F)CC1	8.23
O=C(Nc1ccc(F)cc1)NC1(C(=O)NCc2cccs2)CCCCC1	5.04
Cn1c(=O)c2c(nc(NCc3ccccc3)n2CCCc2ccccc2)n(C)c1=O	7.49
NC(=O)c1ccc(=O)n(Cc2ccc(F)c(F)c2)c1	15.3
Cc1ccc([N+](=O)[O-])c(C)[n+]1C.[I-]	19.8
Cc1[nH]nc2c1C(=O)CC(C)(C)C2	4.55
O=C(CCN1C(=O)C2CCCCC2C1=O)NNC(=O)c1cccc(Cl)c1 (stereo not shown)	10.7
COc1ccc([N+](=O)[O-])cc1NC(=O)CCN1CCN(CCO)CC1	1.93
O=C1C=C(c2cccc3c2oc2ccccc23)CCC1	5.88
CCN(C(=O)CC(C)C)c1nnc(Cn2nnc3ccccc32)s1	5.22
O=C(NC12CC3CC(CC(C3)C1)C2)C1=COCCO1	9.19
O=C(CCC1CCCCC1)NCc1cccs1	8.76
Cc1noc(C)c1C(=O)OCC(=O)Nc1ccc(C(N)=O)cc1	13.7
COc1ccc2c(c1)c(=O)oc1cc(OCC(=O)NC3CCCCC3)ccc12	4.75
O=C(O)C1CCN(c2ccc(Cl)nn2)CC1	2.29
COc1ccc(CN2CCC(c3nc4ccc(Cl)cc4[nH]3)CC2)cc1	-84
Cc1cccc(C(=O)NCCc2n[nH]c(=S)n2C)c1	3.01
Cc1sc2nc(CSCC(=O)Nc3c(F)cccc3F)[nH]c(=O)c2c1C	8.68

Compound	hERG current change (%, negative = inhibition) at 1uM [%]
O=C(Cc1ccccc1F)NNC(=O)c1ccncc1	5.56
Cc1ccc(NC(N)=S)cc1	11.6
CCOC(=O)NC(O)C(=O)c1ccc(F)cc1 (stereo not shown)	17.7
COc1ccc(N=Nc2nc(-c3ccccc3)c(-c3ccccc3)[nH]2)cc1	3.26
CS(=O)(=O)Nc1cccc(C2=NN(C(=O)CCC(=O)O)C(c3cccs3)C2)c1 (stereo not shown)	10.4
CC1CCCC(NC(=O)c2cc(S(=O)(=O)N3CCCCC3)ccc2Cl)C1C (stereo not shown)	0.503
CCOC(=O)CSc1nc2sc(C)c(C)c2c(=O)[nH]1	14
Cc1ccc(CNC(=O)C2CCCN(C(=O)Nc3ccc(F)cc3)C2)cc1 (stereo not shown)	1.77
CCOc1ccc(-n2cc(-c3ccccc3)c3c(SC(C)C(=O)OC)ncnc32)cc1 (stereo not shown)	20.1
Cc1ccc(NS(=O)(=O)c2ccc3c(c2)oc(=O)n3C)cc1F	12.6
C[C@H]1CCC[C@]2(C)C[C@H]3OC(=O)C(CN4CCCCCC4)[C@H]3C=C12 (stereo partly shown)	4.66
Cc1ccccc1Cn1c(CN2CCN(C(=O)c3ccco3)CC2)nc2c1c(=O)n(C)c(=O)n2C	-16.4
O=C1/C(=C/c2cccnc2)Oc2cc(OS(=O)(=O)c3ccc(Cl)cc3)ccc21	-2.81
COc1ccc(CNS(=O)(=O)c2cc3c(cc2C)N(C)CCO3)cc1	7.17
O=C(Nc1ccccc1F)C1(c2ccccc2)CC1(Cl)Cl (stereo not shown)	-1.95
CCOc1ccc(S(=O)(=O)N2CCOCC2)cc1NC(=O)CSC(=S)N1CCCC1	7.63
COc1cccc2cc(-c3ccnc(=S)[nH]3)oc12	10.5
O=C(NCc1ccccc1)C(=O)NCC1OCCN1S(=O)(=O)c1ccc2c(c1)OCCO2 (stereo not shown)	7.35
O=C(O)CN1C(=O)/C(=C\c2cc(Br)ccc2OCc2ccccc2F)SC1=S	21
CCOC(=O)C1(C)C=C(Nc2ccccc2)C(=O)N1c1ccccc1 (stereo not shown)	7.16

Compound	hERG current change (%, negative = inhibition) at 1uM [%]
CC(=O)c1ccc(-n2c(CCC(=O)O)ccc2-c2cccs2)cc1	9.8
O=c1[nH]ncc(N2CCN(C(c3ccccc3)c3ccccc3)CC2)c1Cl	7.46
CC(C)Sc1nc(N2CCOCC2)c2c3c(sc2n1)COC(C)(C)C3	8.24
Cc1csc(=O)n1CCC(=O)OCC(=O)c1c(N)n(C)c(=O)n(C)c1=O	2.2
CC(=O)Nc1c(O)nc(SCC(=O)Nc2cccc(C)c2)[nH]c1=O	14.8
N=c1c(S(=O)(=O)c2ccccc2)cc2c(=O)n3ccccc3nc2n1Cc1cccnc1	6.5
O=C(OCc1nnc(-c2ccccc2)o1)c1cc2ccccc2cc1O	9.48
CC(C)=CC(=O)OCc1cc([N+](=O)[O-])cc2c1OCOC2	9.48
O=C(c1ccc(N2CCCCC2)c([N+](=O)[O-])c1)N1CCN(c2ccccn2)CC1	-32
Cc1c(NC(=O)Nc2ccccc2Cl)sc(=S)n1C	-4.35
O=C(COc1ccccc1)N1CCN(C(=O)c2ccccc2F)CC1	17.8
COc1ccc(C2C(C(N)=O)=C(C)Nc3nc(CCCO)nn32)cc1 (stereo not shown)	13.5
CCOc1ccc(NC2=C(OC)C(=O)c3ccccc3C2=O)cc1	-0.565
O=C(/C=C/c1cn(CC(O)CN2CCCCCC2)c2ccccc12)c1cccs1 (stereo not shown)	-37.9
COc1cccc(/C=N/Nc2nc(-c3cccnc3)nc3ccccc23)c1	9.74
N/C(=N\O)c1ccc(N2CCN(c3ncccc3C(F)(F)F)CC2)nc1	8.16
COC(=O)c1cc(C(=O)Nc2nnc(C3CC3)s2)cc([N+](=O)[O-])c1	18.7
COc1ccc(C(=O)N[C@H](C(=O)Nc2nc3ccccc3[nH]2)C(C)C)cc1	17.3
